Among all 150,000 compounds or so, about 540 (0.36%) showed an effect of 50% or more. This is one part of the list.

The test relates to Plasmodium falciparum. The test can be described thus: Primary screen in NF54 nanoGlo assay, in single point, at 2uM, 72h; a lower Z score goes with more inhibition. The format is functional, Erythrocyte. As to conditions: timepoint 72 hour.
In general, % Inhibition refers to the drop in the measured response relative to a control, in per cent. In the case of `COc1ccc(CN(Cc2ccco2)C(=O)c2ccccc2C)cc1OCc1nc(CO)cs1`, the “% Inhibition” value is recorded as -2% and the Z score worked out at 0.3.
With `CC[C@H](C)N(Cc1ccc(OS(C)(=O)=O)cc1)C(=O)NC(C)(C)C`, the “% Inhibition” value came to 3% and the Z score is reported as -0.44.
Regarding `CCn1cnnc1CCNC(=O)[C@@H]1Cc2ccccc2C(=O)N1`, the “% Inhibition” value is -7% and the Z score worked out at 1.44.
Regarding `C[C@H]1C(=O)N(C)CCN1C(=O)COCc1ccccc1`, the “% Inhibition” value turned out to be 4% and the Z score was -0.64.
With `Cc1nccc(O[C@H]2CCN(C(=O)Cn3ncccc3=O)C2)n1`, the “% Inhibition” value is -8% and the Z score was 1.29.
In the same order, the values of `O=C(c1cnn2c1OCCC2)N1CCCCC1` are -9% and 1.36.
In the case of `O=C(NCC1CCN(C(=O)c2ccco2)CC1)c1ccco1`, the “% Inhibition” value turned out to be 7% and the Z score is -0.86.
For `COc1ccc(F)c(F)c1C(=O)N1C[C@H](C)[C@@](O)(C2CC2)C1`, the “% Inhibition” value is reported as -4% and the Z score was 0.57.
In the case of `CCC(C)(CC)NC(=O)c1ocnc1C`, the “% Inhibition” value was -4% and the Z score came to 0.54.
Take `COC(C)(C)CNC(=O)N(C)[C@@H](C)c1nc(C)sc1C`: the “% Inhibition” value is -1% and the Z score was 0.11.
Turning to `CC1(C)CN(c2cnc(C(=O)O)cn2)Cc2ccccc21`, the “% Inhibition” value stood at 3% and the Z score is recorded as -0.43.
With `O=C(COC[C@H]1CCCO1)Nc1[nH]ncc1S(=O)(=O)c1ccc(Cl)cc1`, the “% Inhibition” value is 4% and the Z score is listed as -0.74.
`O=C1Nc2ccc(-c3ccc4c(c3)OCO4)cc2C(=O)N2CCN(C(=O)C3CCCCC3)C[C@H]12`: the “% Inhibition” value is -3% and the Z score came out at 0.5.
In the same order, the values of `CCN1C(=O)NC(=O)C12CCN(C(=O)CCCOc1ccccc1)CC2` are -6% and 1.22.
Turning to `CN1CCC(N(C)Cc2ccc(Br)o2)CC1`, the “% Inhibition” value was -6% and the Z score was 1.15.
For `Fc1ccc(CNCc2nnc3n2CCC3)cc1Br`, the “% Inhibition” value was -9% and the Z score is recorded as 0.96.
As to `CC1(C)Cc2cccc(N3C(N)=NC(N)=NC3(C)C)c2O1`, the “% Inhibition” value is listed as 3% and the Z score was -0.46.
On to `Cc1ccc(N2CCOCC2)c(NC(=O)C2CCCCC2)c1`, for which the “% Inhibition” value is listed as -1% and the Z score was 0.12.
With `Fc1ccc(-c2nc3c(Br)c(-c4ccccc4)nn3cc2CCN2CCOCC2)cc1`, the “% Inhibition” value is given as -7% and the Z score is listed as 0.98.
On to `Cc1nc(C(=O)N2CCOC3CCCCC32)ccc1C#N` (stereo unspecified), for which the “% Inhibition” value was -3% and the Z score is given as 0.44.
In the same order, the values of `O=C(Nc1ccc2c(c1)OCCCO2)C1CCCCC1` are -1% and 0.25.
In the same order, the values of `CN(CC1CCC1)[C@H]1CCCN(Cc2ccc(F)cc2F)C1=O` are -7% and 0.97.
On to `Cc1nn(CC(C)C)c(Cl)c1CNc1cnn(CC(=O)NCCO)c1`, for which the “% Inhibition” value was -6% and the Z score is 0.58.
`COc1cc2c(cc1C(=O)N1C[C@@H]3CC[C@H]1CN(C(C)=O)C3)CCC2`: the “% Inhibition” value turned out to be 2% and the Z score is reported as -0.25.
On to `CCc1ccc(-c2ccc(NC3CCCCC3)nn2)cc1S(N)(=O)=O`, for which the “% Inhibition” value is listed as -29% and the Z score is 2.71.
Regarding `COc1ccc(N2C3=[N+](CCCCC3)C[C@]2(O)c2ccccc2)cc1`, the “% Inhibition” value is recorded as -4% and the Z score is 0.68.
In the case of `Cc1cc(=O)c(C(=O)NCC2CCN(C(=O)c3ccoc3)CC2)cn1C`, the “% Inhibition” value was -11% and the Z score was determined as 1.36.
Regarding `CN(C(=O)OC(C)(C)C)c1ccc(C(=N)N)cc1`, the “% Inhibition” value is on record as 1% and the Z score is -0.2.
Turning to `Cc1cccc([C@H]2c3cc(OCc4nc(C(=O)N(C)C(C)C)co4)ccc3CCN2C(=O)c2ccco2)c1`, the “% Inhibition” value is 6% and the Z score was -0.77.
As to `CCN(CC)C(=O)C1=CC(c2cccs2)=NS(=O)(=O)N1C`, the “% Inhibition” value is listed as -6% and the Z score stood at 1.16.
Take `Cc1ccc(C)c(Nc2nc3nonc3nc2Nc2c(C)n(C)n(-c3ccccc3)c2=O)c1`: the “% Inhibition” value is -5% and the Z score stood at 0.89.
Take `COC[C@H](C)NC(=O)c1ccc(S(=O)(=O)N2CCN[C@H](C)C2)cc1`: the “% Inhibition” value is -10% and the Z score came to 2.02.
As for `Cn1cc(C(=O)N2CCC[C@H](c3nccn3CC3CCC3)C2)ccc1=O`, the “% Inhibition” value came to 1% and the Z score is -0.11.
Consider `COc1ccc(Cc2n[nH]c([C@H](C)N3CCN(C)CC3)n2)cc1OC`, for which the “% Inhibition” value is listed as -6% and the Z score was 1.05.
With `CCc1ccc(CN(C)[C@H]2CN(C3Cc4ccccc4C3)C[C@@H]2O)nc1`, the “% Inhibition” value was -9% and the Z score came out at 1.58.
`CCn1c(=O)c2ccn(CC(=O)Nc3ccc(F)cc3)c2n(CC)c1=O`: the “% Inhibition” value is -31% and the Z score stood at 3.16.
Consider `Cc1nc2cc(NC(=O)[C@H]3CC3(Cl)Cl)ccc2o1`, for which the “% Inhibition” value is -1% and the Z score came out at 0.14.
In the same order, the values of `CCN(CC)S(=O)(=O)NC1CC2CCC1(C)C2(C)C` (stereo unspecified) are -10% and 1.31.
In the same order, the values of `O=C(NCC(=O)N1CCN(c2ccccc2)CC1)C1CCCCC1` are 9% and -1.17.
With `CN1CC[C@H](C(=O)N2CC3(CCCCC3)C2)C1`, the “% Inhibition” value was 1% and the Z score was -0.14.
Take `CCc1nnc(-c2cc(C)n(CC(=O)NCc3ccc(OC)cc3)c2C)o1`: the “% Inhibition” value is -12% and the Z score came to 2.31.
Regarding `CO[C@H]1CCN(c2ccc(NC(=O)C3CCN(C(C)=O)CC3)cc2)C1`, the “% Inhibition” value is recorded as -11% and the Z score came to 1.41.
In the same order, the values of `O=C(NCC(F)(F)c1ccc(F)cc1)Nc1ncc(C2CCOCC2)s1` are -7% and 0.71.

The record behind these values is ChEMBL document CHEMBL4888484, “Replenishing the malaria drug discovery pipeline: Screening and hit evaluation of the MMV Hit Generation Library 1 (HGL1) against asexual blood stage Plasmodium falciparum ,using a nano luciferase reporter read-out” (2022).
